# About 150 (0.041%) of roughly 370,000 compounds were called active. The shares of active, inactive and inconclusive entries below differ from those in the screen. The call rests on the fitted dose curve; in most records, active means well fitted inhibition curve with a large enough effect; inconclusive means small, poorly fitted or top-dose-only effect; inactive means flat fitted curve, though single readings scatter. Potencies of inconclusive entries are left out as doubtful fits.
# Molecular target: Beta-lactamase (Escherichia coli (strain K12)) (UniProt P00811)
# Chain of UniProt P00811 (P00811 whole entry, looked up): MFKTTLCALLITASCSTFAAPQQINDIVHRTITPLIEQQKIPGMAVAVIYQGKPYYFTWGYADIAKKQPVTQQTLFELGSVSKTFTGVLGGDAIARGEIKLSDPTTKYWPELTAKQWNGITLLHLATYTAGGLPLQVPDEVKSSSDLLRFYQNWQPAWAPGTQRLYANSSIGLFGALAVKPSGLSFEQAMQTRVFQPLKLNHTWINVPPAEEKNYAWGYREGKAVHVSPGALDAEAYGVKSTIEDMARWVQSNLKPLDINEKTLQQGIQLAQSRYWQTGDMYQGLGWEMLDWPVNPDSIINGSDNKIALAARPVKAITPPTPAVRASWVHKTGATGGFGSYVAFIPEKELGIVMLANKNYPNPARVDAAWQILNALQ
# Experiment: qHTS Inhibitors of AmpC Beta-Lactamase (assay with detergent); further: nearly all actives have a fitted effect of over 25% in size
# Conditions: AmpC hydrolysis of nitrocefin, absorbance 480 nm, 0.01% Triton; series mostly up to 114 µM
# How it was run: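 AmpC (5.3 nM in the dispensed reagent) in 20 mM phosphate pH 7.0 with 0.01% (detergent screen) or 0.0001% Triton X-100 was preincubated with compounds for 15 min at room temperature. Nitrocefin was then added from an 800 uM solution, and hydrolysis was followed at 480 nm.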
# Potency means the concentration at half of the fitted maximal effect; tags describe the fitted curve by direction and shape.
row,SMILES,Potency
1,CCOc1ccc(-c2nc(Cn3c(=O)cc(-c4ccccc4)c4c(C)nn(C)c43)c(C)o2)cc1OC,inactive
2,NC(=S)N/N=C1/CCSc2ccc3ccccc3c21,"inconclusive [inhibitor, single point]"
3,CCOC(=O)c1cc2sccc2n1Cc1ccccc1,"inconclusive [inhibitor, single point]"
4,O/N=C/c1ccccc1Oc1ccc(Cl)cc1,inactive
5,S=C(NC1CCCCC1)N1CCN(C/C=C/c2ccccc2)CC1,inactive
6,c1ccc(CN2C3=NCCN3c3ccccc32)cc1,"inconclusive [inhibitor, single point]"
7,CCCNCc1nnc(-c2ccccc2Cl)o1,"inconclusive [inhibitor, full curve]"
8,CCOc1ccc(N2C(=O)/C(=C\c3ccccc3OC)S(=O)(=O)C2c2cccc([N+](=O)[O-])c2)cc1 (stereo not given),"inconclusive [inhibitor, single point]"
9,CCOC(=O)c1cnn2c(N)c(C#N)nnc12,"inconclusive [inhibitor, full curve, poor fit]"
10,Cc1ccc(S(=O)(=O)N2CCN(Cc3ccccc3C(F)(F)F)CC2)cc1,inactive
11,Cc1ccc(C(=O)N/N=C\c2ccc([N+](=O)[O-])o2)cn1,inactive
12,CCc1ccc(S(=O)(=O)/N=C2\C=C(Nc3ccc(O)cc3)C(=O)c3ccccc32)cc1,inactive
13,Cc1ccc2c(c1)c1c(n2C)-c2[nH]ncc2CC1,"inconclusive [inhibitor, partial curve, poor fit]"
14,O=C(COC(=O)CNC(=O)c1ccccc1F)NCCC1=CCCCC1,"inconclusive [inhibitor, full curve]"
15,COC(=O)c1c(SC)nc2ccccc2c1OCc1cccc(C)c1,inactive
16,CCCCNC(=O)CSc1ccc(S(=O)(=O)N2CCOCC2)cn1,"inconclusive [inhibitor, partial curve, poor fit]"
17,O=C(COc1ncnc2sccc12)N1CCc2ccccc2C1,"inconclusive [inhibitor, full curve]"
18,COc1cc(C(=O)N/C(=C\c2cn(C)c3ccccc23)C(=O)N2CCOCC2)cc(OC)c1OC,"inconclusive [inhibitor, full curve, poor fit]"
19,COC(=O)c1ccc(NC(=O)c2cc[n+](Cc3ccccc3)cc2)cc1,"inconclusive [inhibitor, partial curve, poor fit]"
20,COc1ccc(-c2cc(=O)oc3cc(OCC(=O)c4cccc([N+](=O)[O-])c4)ccc23)cc1,"inconclusive [inhibitor, single point]"
21,COc1ccc(OC)c(/C=C/C(=O)N2CCCc3ccccc32)c1,"inconclusive [inhibitor, single point]"
22,COc1ccc(S(=O)(=O)NCc2ccccn2)cc1Cl,"inconclusive [inhibitor, single point]"
23,COC(=O)c1c(C)oc(C)c1S(=O)(=O)NC(C)(C)C,inactive

row,SMILES,Potency
1,COCCN(CCOC)c1ncnc2c1cnn2-c1ccc(Cl)cc1,inactive
2,Cc1ccc(-n2c(-c3cn(C)nc3C)n[nH]c2=S)cc1,"inconclusive [inhibitor, single point]"
3,O=C(c1cc2ccccc2[nH]1)N1CCOCC1,"inconclusive [inhibitor, partial curve]"
4,COc1ccccc1OCC(=O)NC1CCSc2ccccc21 (stereo not given),"inconclusive [inhibitor, full curve, poor fit]"
5,CCN(CCNC(=O)c1cccc(N2CCCC2=O)c1)c1ccccc1,"inconclusive [inhibitor, partial curve, poor fit]"
6,COCCn1c(C)cc(O)c(C(c2ccccc2)N2CCN(c3ccc(F)cc3)CC2)c1=O (stereo not given),inactive
7,COC(=O)c1cc(S(=O)(=O)N2CCCC2=O)c(Cl)cc1Cl,"inconclusive [inhibitor, full curve, poor fit]"
8,Cc1ccc(-c2nnc(SCC(N)=O)nc2-c2ccc(C)cc2)cc1,"inconclusive [inhibitor, full curve, poor fit]"
9,O=C(OCc1ccccc1)c1cc(S(=O)(=O)N2CCCCC2)ccc1N1CCOCC1,inactive
10,CSc1ccccc1OCc1cc(C(=O)N(C)C(C)c2nc(C)cs2)no1 (stereo not given),inactive
11,O=c1c2ccccc2nc(COc2ccccc2)n1/N=C/c1ccc(O)cc1O,inactive
12,N#Cc1cccc(C(=O)OCC(=O)N2CCCc3ccccc32)c1,"inconclusive [inhibitor, full curve, poor fit]"
13,Cc1cc(N2CCCC2)nc(SCC(=O)c2ccccc2)n1,"inconclusive [inhibitor, full curve, poor fit]"
14,S=C(Nc1ccc2c(c1)OCO2)Nc1ccc2c(c1)OCO2,"inconclusive [inhibitor, partial curve]"
15,CC1(C(=O)N2CCC(CC3CC(c4ccc(Cl)cc4)=NO3)(C(=O)NCC3CCCCC3)CC2)CC1 (stereo not given),inactive
16,O=C(COC(=O)c1cc(Cl)ccc1O)Nc1ccc2c(c1)OCCO2,"inconclusive [inhibitor, full curve]"
17,CCCCC(=O)N(Cc1ccc(-c2ccccc2-c2nn[nH]n2)cc1)[C@H](C(=O)O)C(C)C,inactive
18,C=C[C@]1(C)C=C2CCC3[C@](C)(CCC[C@@]3(C)C(=O)O)C2CC1 (stereo not given in full),inactive
19,COc1ccccc1-c1cc(C(F)(F)F)nc(N2CCOCC2)n1,"inconclusive [inhibitor, full curve, poor fit]"
20,Cc1ccc(/C(O)=C2\C(=O)C(=O)N(CC(C)O)C2c2cccc(F)c2)cc1 (stereo not given),"inconclusive [inhibitor, full curve, poor fit]"
21,Cn1c(=O)c2c(ncn2CC(=O)Nc2nnc(Cc3ccccc3)s2)n(C)c1=O,"inconclusive [inhibitor, full curve, poor fit]"
22,O=C(CNC1=NCCC1)c1ccc2c(c1)OCCO2,"inconclusive [inhibitor, full curve]"

# Source: PubChem BioAssay AID485294 (National Center for Advancing Translational Sciences (NCATS), 2010)
